Measurements from patent US9803013B2, “Biological materials and uses thereof” (BioInvent International AB, priority 2005, dated 2017).

Experiments:
Design in all cases: species or system human
[1] = test system: Reh/KM-3; test: IgG binding to pre B cell leukaemia cell line, flow cytometry MFI; conditions: Reh/KM-3, pre B cell Leukaemia; control FITC-8 IgG MFI subtracted
Protocol: (§1) • ^aApoptosis Induction; determined by percentage of viable cells after 6 hour incubation with any of the human antibodies, crosslinked with Goat anti-Human (gamma) Fc specific antibody; −, viability not affected; +, 95-80%; ++, 79-60%; +++, 59-40% viable cells compared to control (human FITC-8 IgG1). […] The cell line dependent MFI value of control human FITC-8 IgG antibody was subtracted from the MFI of each human antibody.

[2] = test system: Granta 519; test: IgG binding to B lymphoma cell line, flow cytometry MFI; conditions: Granta 519, Mantle cell Lymphoma; control FITC-8 IgG MFI subtracted
Protocol: as §1

[3] = test system: NCEB-1; test: as above; conditions: NCEB-1, Mantle cell Lymphoma; control FITC-8 IgG MFI subtracted
Protocol: as §1

[4] = test system: Ramos; test: as above; conditions: Burkitt's Lymphoma, control FITC-8 IgG MFI subtracted
Protocol: as §1

[5] = test system: RL; test: as above; conditions: Follicular Lymphoma, control FITC-8 IgG MFI subtracted
Protocol: as §1

[6] = test system: SP-53; test: as above; conditions: SP-53, Mantle cell Lymphoma; control FITC-8 IgG MFI subtracted
Protocol: as §1

[7] = test system: WSU-NHL; test: as above; conditions: Follicular Lymphoma, control FITC-8 IgG MFI subtracted
Protocol: as §1

[8] = test system: DOHH-2; test: as above; conditions: DOHH-2, Follicular Lymphoma; control FITC-8 IgG MFI subtracted
Protocol: as §1

[9] = test system: SC-1; test: as above; conditions: SC-1, Follicular Lymphoma; control FITC-8 IgG MFI subtracted
Protocol: as §1

[10] = test system: Daudi; test: as above; conditions: Burkitt's Lymphoma, control FITC-8 IgG MFI subtracted
Protocol: as §1

[11] = test system: Rec-1; test: as above; conditions: Rec-1, Mantle cell Lymphoma; control FITC-8 IgG MFI subtracted
Protocol: as §1

[12] = test system: CL-01; test: as above; conditions: CL-01, Burkitt's Lymphoma; control FITC-8 IgG MFI subtracted
Protocol: as §1

[13] = test system: Jeko-1; test: as above; conditions: Jeko-1, Mantle cell Lymphoma; control FITC-8 IgG MFI subtracted
Protocol: as §1

[14] = test system: BJAB; test: as above; conditions: Burkitt's Lymphoma, control FITC-8 IgG MFI subtracted
Protocol: as §1

[15] = test system: JVM-2; test: as above; conditions: JVM-2, Mantle cell Lymphoma; control FITC-8 IgG MFI subtracted
Protocol: as §1

[16] = test system: Raji; test: as above; conditions: Burkitt's Lymphoma, control FITC-8 IgG MFI subtracted
Protocol: as §1

B1: B1: fully human IgG1 antibody specific for HLA-DR/DP; VH and VL sequences of FIG. 9 (SEQ ID NOs. 2 and 4) (antibody, listed as Homo sapiens, V domains shown)
VH: [about 100 residues left out here]DGLLPLDYWGQGTLVTVSS
VL: QSVLTQPPSASGTPGQRVTISCSGGSSNIGGNAVNWYQQLPGTAPKLLIYENNKRPSGVPDRFSGSKSGTSASLAISGLRSEDEADYYCSSYAVSNNFEVLFGGGTKLTVLG
B1 showed an MFI [1] of 240, an MFI [2] of 370 and an MFI [3] of 750. For the same molecule, the MFI [4] was 125, the MFI [5] was 50 and the MFI [6] was 500. The MFI [7] was 280, the MFI [8] was 140 and the MFI [9] was 170. For the same molecule, the MFI [10] was 200, the MFI [11] was 0 and the MFI [12] was 940. The MFI [13] was 1000, the MFI [14] was 530 and the MFI [15] was 650. The MFI [16] was 550.
